# Test results taken from the supplement of paper PMC8728848.
# Some of the results follow.
# B1: AAA (Anguilla anguilla), Q7SIC1 (protein)
# chain: VIPEGYTQENVAVRGKATQSAQLRGEHAANSEASNAIDGNRDSNFYHGSCTHSSGQANPWWRVDLLQVYTITSVTITNRGDCCGERISGAEINIGQHLASNGVNNPECSVIGSMATGETKTFHCPAPMIGRYVVTYLPTSESLHLCEVEVNVDKPAAA
# Columns and labels:
# Test in all cases: glycan array binding signal (z-score within array); higher = stronger binding
# Settings in all cases: glycan notation: IUPAC condensed, linker removed
# Fuc(a1-2)Gal = target: Fuc(a1-2)Gal
# Summary of the method: (§1)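 Arrays were curated from the Consortium for Functional Glycomics database, 3228 in total, and kept only where the protein sequence was available. Binding is expressed as a within-array Z-score. This score was averaged across arrays of the same protein sequence at different concentrations or buffers and across linkers, and negative values can be read as non-binding.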
# Fuc(a1-2)Gal(b1-3)GalNAc = target: Fuc(a1-2)Gal(b1-3)GalNAc
# Summary of the method: as §1
# [1] = target: Fuc(a1-2)Gal(b1-3)GalNAc(a1-3)[Fuc(a1-2)]Gal(b1-4)Glc
# Summary of the method: as §1
# [2] = target: Fuc(a1-2)Gal(b1-3)GalNAc(a1-3)[Fuc(a1-2)]Gal(b1-4)GlcNAc
# Summary of the method: as §1
# [3] = target: Fuc(a1-2)Gal(b1-3)GalNAc(b1-3)Gal
# Summary of the method: as §1
# [4] = target: Fuc(a1-2)Gal(b1-3)GalNAc(b1-3)Gal(a1-4)Gal(b1-4)Glc
# Summary of the method: as §1
# [5] = target: Fuc(a1-2)Gal(b1-3)GalNAc(b1-3)Gal(b1-4)Glc
# Summary of the method: as §1
# [6] = target: Fuc(a1-2)Gal(b1-3)GalNAc(b1-4)[Neu5Ac(a2-3)]Gal(b1-4)Glc
# Summary of the method: as §1
# Fuc(a1-2)Gal(b1-3)GlcNAc = target: Fuc(a1-2)Gal(b1-3)GlcNAc
# Summary of the method: as §1
# [7] = target: Fuc(a1-2)Gal(b1-3)GlcNAc(b1-2)Man(a1-3)[Fuc(a1-2)Gal(b1-3)GlcNAc(b1-2)Man(a1-6)]Man(b1-4)GlcNAc(b1-4)GlcNAc
# Summary of the method: as §1
# [8] = target: Fuc(a1-2)Gal(b1-3)GlcNAc(b1-2)Man(a1-3)[Fuc(a1-2)Gal(b1-3)GlcNAc(b1-2)Man(a1-6)]Man(b1-4)GlcNAc(b1-4)[Fuc(a1-6)]GlcNAc
# Summary of the method: as §1
# [9] = target: Fuc(a1-2)Gal(b1-3)GlcNAc(b1-3)Gal(b1-4)Glc
# Summary of the method: as §1
# [10] = target: Fuc(a1-2)Gal(b1-3)GlcNAc(b1-3)GalNAc
# Summary of the method: as §1
# [11] = target: Fuc(a1-2)Gal(b1-3)GlcNAc(b1-3)[Fuc(a1-2)Gal(b1-3)GlcNAc(b1-6)]GalNAc
# Summary of the method: as §1
# [12] = target: Fuc(a1-2)Gal(b1-3)GlcNAc(b1-3)[Gal(b1-4)GlcNAc(b1-6)]Gal(b1-4)Glc
# Summary of the method: as §1
# [13] = target: Fuc(a1-2)Gal(b1-3)GlcNAc(b1-3)[Neu5Ac(a2-6)Gal(b1-4)GlcNAc(b1-6)]Gal(b1-4)Glc
# Summary of the method: as §1
# [14] = target: Fuc(a1-2)Gal(b1-3)GlcNAc6S
# Summary of the method: as §1
# [15] = target: Fuc(a1-2)Gal(b1-3)[Fuc(a1-4)]GlcNAc
# Summary of the method: as §1
# [16] = target: Fuc(a1-2)Gal(b1-3)[Fuc(a1-4)]GlcNAc(b1-2)Man(a1-3)[Fuc(a1-2)Gal(b1-3)[Fuc(a1-4)]GlcNAc(b1-2)Man(a1-3)]Man(b1-4)GlcNAc(b1-4)GlcNAc
# Summary of the method: as §1
# [17] = target: Fuc(a1-2)Gal(b1-3)[Fuc(a1-4)]GlcNAc(b1-2)Man(a1-3)[Fuc(a1-2)Gal(b1-3)[Fuc(a1-4)]GlcNAc(b1-2)Man(a1-6)]Man(b1-4)GlcNAc(b1-4)[Fuc(a1-6)]GlcNAc(b1-4)[Fuc(a1-6)]GlcNAc
# Summary of the method: as §1
# [18] = target: Fuc(a1-2)Gal(b1-3)[Fuc(a1-4)]GlcNAc(b1-3)[Fuc(a1-3)[Gal(b1-4)]GlcNAc(b1-6)]Gal(b1-4)Glc
# Summary of the method: as §1
# [19] = target: Fuc(a1-2)Gal(b1-3)[Fuc(a1-4)]GlcNAc(b1-3)[Gal(b1-4)GlcNAc(b1-6)]Gal(b1-4)Glc
# Summary of the method: as §1
# [20] = target: Fuc(a1-2)Gal(b1-4)Fuc(a1-3)]GlcNAc(b1-2)Man(a1-3)[Fuc(a1-2)Gal(b1-4)[Fuc(a1-3)]GlcNAc(b1-2)Man(a1-6)]Man(b1-4)GlcNAc(b1-4)GlcNAc
# Summary of the method: as §1
# Fuc(a1-2)Gal(b1-4)Glc = target: Fuc(a1-2)Gal(b1-4)Glc
# Summary of the method: as §1
# Fuc(a1-2)Gal(b1-4)Glc6S = target: Fuc(a1-2)Gal(b1-4)Glc6S
# Summary of the method: as §1
# Fuc(a1-2)Gal(b1-4)GlcNAc = target: Fuc(a1-2)Gal(b1-4)GlcNAc
# Summary of the method: as §1
# [21] = target: Fuc(a1-2)Gal(b1-4)GlcNAc(b1-2)Man
# Summary of the method: as §1
# [22] = target: Fuc(a1-2)Gal(b1-4)GlcNAc(b1-2)Man(a1-3)[Fuc(a1-2)Gal(b1-4)GlcNAc(b1-2)Man(a1-6)]Man(b1-4)GlcNAc(b1-4)GlcNAc
# Summary of the method: as §1
# [23] = target: Fuc(a1-2)Gal(b1-4)GlcNAc(b1-2)Man(a1-3)[Fuc(a1-2)Gal(b1-4)GlcNAc(b1-2)Man(a1-6)]Man(b1-4)GlcNAc(b1-4)[Fuc(a1-6)]GlcNAc
# Summary of the method: as §1
# [24] = target: Fuc(a1-2)Gal(b1-4)GlcNAc(b1-2)[Fuc(a1-2)Gal(b1-4)GlcNAc(b1-4)]Man(a1-3)[Fuc(a1-2)Gal(b1-4)GlcNAc(b1-2)Man(a1-6)]Man(b1-4)GlcNAc(b1-4)GlcNAc
# Summary of the method: as §1
# [25] = target: Fuc(a1-2)Gal(b1-4)GlcNAc(b1-3)Gal(b1-4)GlcNAc
# Summary of the method: as §1
# [26] = target: Fuc(a1-2)Gal(b1-4)GlcNAc(b1-3)Gal(b1-4)GlcNAc(b1-2)Man(a1-3)[Fuc(a1-2)Gal(b1-4)GlcNAc(b1-3)Gal(b1-4)GlcNAc(b1-2)Man(a1-6)]Man(b1-4)GlcNAc(b1-4)GlcNAc
# Summary of the method: as §1
# [27] = target: Fuc(a1-2)Gal(b1-4)GlcNAc(b1-3)Gal(b1-4)GlcNAc(b1-3)Gal(b1-4)GlcNAc
# Summary of the method: as §1
# [28] = target: Fuc(a1-2)Gal(b1-4)GlcNAc(b1-3)GalNAc
# Summary of the method: as §1
# [29] = target: Fuc(a1-2)Gal(b1-4)GlcNAc(b1-3)[Fuc(a1-2)Gal(b1-4)GlcNAc(b1-6)]GalNAc
# Summary of the method: as §1
# [30] = target: Fuc(a1-2)Gal(b1-4)GlcNAc(b1-3)[Fuc(a1-3)[Gal(b1-4)]GlcNAc(b1-6)]Gal(b1-4)Glc
# Summary of the method: as §1
# [31] = target: Fuc(a1-2)Gal(b1-4)GlcNAc(b1-6)GalNAc
# Summary of the method: as §1
# [32] = target: Fuc(a1-2)Gal(b1-4)GlcNAc6S
# Summary of the method: as §1
# [33] = target: Fuc(a1-2)Gal(b1-4)[Fuc(a1-3)]GalNAc(b1-3)Gal(b1-4)[Fuc(a1-3)]GlcNAc
# Summary of the method: as §1
# [34] = target: Fuc(a1-2)Gal(b1-4)[Fuc(a1-3)]GalNAc(b1-3)Gal(b1-4)[Fuc(a1-3)]GlcNAc(b1-3)Gal(b1-4)[Fuc(a1-3)]GalNAc
# Summary of the method: as §1
# [35] = target: Fuc(a1-2)Gal(b1-4)[Fuc(a1-3)]GlcNAc
# Summary of the method: as §1
# [36] = target: Fuc(a1-2)Gal(b1-4)[Fuc(a1-3)]GlcNAc(b1-2)Man(a1-3)[Fuc(a1-2)Gal(b1-4)[Fuc(a1-3)]GlcNAc(b1-2)Man(a1-6)]Man(b1-4)GlcNAc(b1-4)[Fuc(a1-6)]GlcNAc
# Summary of the method: as §1
# [37] = target: Fuc(a1-2)Gal(b1-4)[Fuc(a1-3)]GlcNAc(b1-2)[Fuc(a1-2)Gal(b1-4)[Fuc(a1-3)]GlcNAc(b1-4)]Man(a1-3)[Fuc(a1-2)Gal(b1-4)[Fuc(a1-3)]GlcNAc(b1-2)Man(a1-6)]Man(b1-4)GlcNAc(b1-4)GlcNAc
# Summary of the method: as §1
# [38] = target: Fuc(a1-2)Gal(b1-4)[Fuc(a1-3)]GlcNAc(b1-3)Gal(b1-4)[Fuc(a1-3)]GlcNAc
# Summary of the method: as §1
# [39] = target: Fuc(a1-2)Gal(b1-4)[Fuc(a1-3)]GlcNAc(b1-3)Gal(b1-4)[Fuc(a1-3)]GlcNAc(b1-3)Gal(b1-4)[Fuc(a1-3)]GlcNAc
# Summary of the method: as §1
binder,measurement,setting,value
B1,glycan array binding signal (z-score),Fuc(a1-2)Gal,-0.197
same,glycan array binding signal (z-score),Fuc(a1-2)Gal(b1-3)GalNAc,-0.173
same,glycan array binding signal (z-score),[1],-0.257
same,glycan array binding signal (z-score),[2],-0.219
same,glycan array binding signal (z-score),[3],-0.151
same,glycan array binding signal (z-score),[4],-0.106
same,glycan array binding signal (z-score),[5],0.014
same,glycan array binding signal (z-score),[6],-0.193
same,glycan array binding signal (z-score),Fuc(a1-2)Gal(b1-3)GlcNAc,-0.191
same,glycan array binding signal (z-score),[7],0.144
same,glycan array binding signal (z-score),[8],-0.117
same,glycan array binding signal (z-score),[9],-0.189
same,glycan array binding signal (z-score),[10],-0.193
same,glycan array binding signal (z-score),[11],-0.086
same,glycan array binding signal (z-score),[12],-0.272
same,glycan array binding signal (z-score),[13],-0.119
same,glycan array binding signal (z-score),[14],-0.115
same,glycan array binding signal (z-score),[15],-0.235
same,glycan array binding signal (z-score),[16],-0.013
same,glycan array binding signal (z-score),[17],-0.126
same,glycan array binding signal (z-score),[18],-0.222
same,glycan array binding signal (z-score),[19],-0.148
same,glycan array binding signal (z-score),[20],0.051
same,glycan array binding signal (z-score),Fuc(a1-2)Gal(b1-4)Glc,-0.111
same,glycan array binding signal (z-score),Fuc(a1-2)Gal(b1-4)Glc6S,0.203
same,glycan array binding signal (z-score),Fuc(a1-2)Gal(b1-4)GlcNAc,-0.268
same,glycan array binding signal (z-score),[21],-0.265
same,glycan array binding signal (z-score),[22],-0.052
same,glycan array binding signal (z-score),[23],-0.291
same,glycan array binding signal (z-score),[24],0.145
same,glycan array binding signal (z-score),[25],-0.217
same,glycan array binding signal (z-score),[26],0.005
same,glycan array binding signal (z-score),[27],-0.279
same,glycan array binding signal (z-score),[28],0.041
same,glycan array binding signal (z-score),[29],-0.001
same,glycan array binding signal (z-score),[30],-0.128
same,glycan array binding signal (z-score),[31],0.002
same,glycan array binding signal (z-score),[32],-0.167
same,glycan array binding signal (z-score),[33],-0.583
same,glycan array binding signal (z-score),[34],-0.587
same,glycan array binding signal (z-score),[35],-0.134
same,glycan array binding signal (z-score),[36],0.025
same,glycan array binding signal (z-score),[37],0.956
same,glycan array binding signal (z-score),[38],-0.171
same,glycan array binding signal (z-score),[39],-0.183
